Source: US20200231654A1 (published 2020)
Like-named read-outs stand apart in the source and are kept apart here.

Legend:
[1] = molecular target: T1, active hMMP-9(cat)_His6 (UniProt P14780 107-449); assay: enzyme inhibition; substrate peptide
[2] = molecular target: T1, active hMMP-9(cat)_His6; assay: enzyme inhibition; substrate peptide; remark: listed apart in the source
T1 sequence (P14780 107-449): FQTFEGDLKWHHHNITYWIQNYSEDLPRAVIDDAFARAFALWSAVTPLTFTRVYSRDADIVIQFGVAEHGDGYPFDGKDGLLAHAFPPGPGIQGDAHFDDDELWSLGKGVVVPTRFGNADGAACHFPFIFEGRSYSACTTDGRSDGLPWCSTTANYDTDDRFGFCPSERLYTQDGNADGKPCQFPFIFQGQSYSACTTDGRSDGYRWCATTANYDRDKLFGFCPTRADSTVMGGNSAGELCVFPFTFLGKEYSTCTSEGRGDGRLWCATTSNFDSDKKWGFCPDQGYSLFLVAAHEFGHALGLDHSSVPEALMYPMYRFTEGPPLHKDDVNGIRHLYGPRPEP

IC50 [1]: 4.5 nM | IC50 [2]: 1.8 nM
B1: active MMP-9-binding peptide C-terminal conjugate M91005-Fc-01 (Fc fusion)
chain: GSGMKETAAAKFERQHMDSPDLGTDDDDKAMADIGSANSDPQFGLFSKYRTPNCRKRGGPSCQMSYNPVCGSDMSTYANECTLCMKIREGGHNIKIIRNGPCGASAAAGGGGS[… human IgG1 Fc …]
